According to PubChem BioAssay AID485281 (National Center for Advancing Translational Sciences (NCATS), 2010):
In all, about 350,000 compounds went through this assay and about 260 (0.074%) were called active. This list was built around the results that the source calls inconclusive (neither active nor inactive); the mix of calls is not that of the screen. Calls follow the shape of the dose curve; as a rule, active = well fitted inhibition curve with a large enough effect; inconclusive = small, poorly fitted or top-dose-only effect; inactive = no such curve, though single readings can be large or run the other way. Where the call is inconclusive, the potency comes from a doubtful curve fit.

Target: Ferritin light chain (Equus caballus) (UniProt P02791)
UniProt P02791, sequence (P02791 whole entry, looked up): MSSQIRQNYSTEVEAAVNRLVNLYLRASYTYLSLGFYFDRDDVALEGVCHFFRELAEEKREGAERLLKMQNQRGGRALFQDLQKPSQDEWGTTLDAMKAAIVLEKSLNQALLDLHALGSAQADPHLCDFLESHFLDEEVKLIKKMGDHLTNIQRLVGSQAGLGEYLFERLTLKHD
Test: qHTS Assay for Identification of Novel General Anesthetics; also: nearly all actives have a fitted effect of over 20% in size
Details: apoferritin/1-aminoanthracene competitive binding, fluorescence; activity change, negative = displacement: at 77.5 µM (top of the series)
In short: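 Apoferritin-based anesthetic binding model; compound displacement of fluorescent 1-AMA measured as endpoint fluorescence after 10 minutes at room temperature, scaled to free-ligand and complex controls.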
% is scaled to controls: 0 for no effect and ±100 for the full control effect; potency is read from the fitted curve at half-maximal effect; tags tell the direction and shape of the fitted curve.

| Structure (SMILES) | Potency | activity change, negative = displacement |
| --- | --- | --- |
| O=C(NC1CC1)C1CC(=O)N(c2cccc(Cl)c2)C1 (configuration not stated) | inconclusive: 31.6 µM [inhibitor, partial curve] | – |
| O=c1ccc2ccc(OCc3nnc(-c4ccccc4Br)o3)cc2o1 | inconclusive: 20 µM [inhibitor, partial curve] | – |
| O=C(CN1CCN(c2ccccc2F)CC1)c1ccc(O)c(O)c1 | – | inactive: -11.1% |
| CCCCN1C(C(=O)c2ccccc2)=C(OC(C)=O)c2ccccc2S1(=O)=O | – | inactive: -21.1% |
| CC12CCC(=O)N1C(C(=O)Nc1ccc(Br)cc1Cl)CS2 (configuration not stated) | inconclusive: 22.4 µM [inhibitor, partial curve] | – |
| O=C(/C=C/c1cccs1)N1CCC2(CC1)Oc1ccc(F)cc1C(=O)C21CC(c2ccc(Cl)cc2)=NO1 (configuration not stated) | – | inactive: -6.22% |
| CCn1cc(C(=O)NC2CCC(C)CC2)c(=O)c2cc(S(=O)(=O)N3CCCCC3)ccc21 (configuration not stated) | inconclusive: 20 µM [inhibitor, partial curve] | – |
| O=C(COC(=O)C12CC3CC(CC(O)(C3)C1)C2)NC12CC3CC(CC(C3)C1)C2 | inconclusive: 11.2 µM [inhibitor, partial curve] | – |
| O=C(NC(=S)Nc1ccccc1N1CCOCC1)c1ccc(-c2ccccc2F)o1 | – | inactive: -0.481% |
| COc1ccc(C(=O)NC(=S)NCc2ccco2)cc1Br | inconclusive: 28.2 µM [inhibitor, partial curve] | – |
| Cc1cc(NS(=O)(=O)c2ccccc2)cc(Cl)c1O | inconclusive: 11.2 µM [inhibitor, partial curve] | – |
| CC(C)(C)c1ccc(/C=N/NC(=S)Nc2cccnc2)cc1 | inconclusive: 22.4 µM [inhibitor, partial curve] | – |
| COc1cccc(OC)c1C(=O)NNC(=O)c1cccc(COc2ccc3c(c2)CCC3)c1 | inconclusive: 25.1 µM [inhibitor, partial curve] | – |
| O=C(NCc1ccccc1)c1c[nH]c2ccc(S(=O)(=O)Nc3ccc4c(c3)OCCO4)cc2c1=O | inconclusive: 11.2 µM [inhibitor, partial curve] | – |
| Cc1ccc(NCC(=O)N/N=C\c2cccc(O)c2)cc1 | inconclusive: 14.1 µM [inhibitor, partial curve] | – |
| Cc1ccc(SCc2[nH]nc3c2C(C(C)C)C(C#N)=C(N)O3)cc1 (configuration not stated) | inconclusive: 28.2 µM [inhibitor, partial curve] | – |
| CCCCCCn1c(O)c(/C=C2\C=NN=C2c2ccccc2)sc1=S | inconclusive: 3.98 µM [inhibitor, full curve, poor fit] | – |
| O=C(Nc1ccc(S(=O)(=O)Nc2nccs2)cc1)c1cc(-c2ccccc2Cl)nc2ccccc12 | inconclusive: 17.8 µM [inhibitor, partial curve] | – |
| S=C(Nc1ccccc1)Nc1cc(Cl)ccc1Oc1ccccc1 | inconclusive: 50.1 µM [inhibitor, single point] | – |
| Cc1cc(C)c(C(=O)COC(=O)c2ccc([N+](=O)[O-])o2)cc1C | inconclusive: 25.1 µM [inhibitor, partial curve] | – |
| Cc1ccc(-c2nc3ccccc3c(=O)n2O)cc1 | – | inactive: -2.23% |
| CCC(C)NC(=O)c1cccc(NC(=O)c2nsc3ccccc23)c1 (configuration not stated) | inconclusive: 35.5 µM [inhibitor, partial curve] | – |
| CC1Cc2cc(/C(O)=C3/C(=O)C(=O)N(Cc4cccnc4)C3c3cccc(O)c3)ccc2O1 (configuration not stated) | – | inactive: -10.9% |

| Structure (SMILES) | Potency | activity change, negative = displacement |
| --- | --- | --- |
| Cc1ccc(C(=O)N/C(=C/c2cccs2)C(=O)NCCCn2ccnc2)cc1 | – | inactive: -0.892% |
| COc1ccc(S(=O)(=O)n2nc(OC(=O)c3ccco3)cc2N)cc1 | inconclusive: 39.8 µM [inhibitor, single point] | – |
| COc1ccc(-c2c3c(=O)n(C)c(=O)n(C)c3cn2-c2cc(OC)ccc2OC)cc1 | inconclusive: 35.5 µM [inhibitor, partial curve] | – |
| Cc1ccc(-c2noc(CCC(=O)NCCN3CCc4ccccc4C3)n2)cc1 | inconclusive: 28.2 µM [inhibitor, single point] | – |
| Cc1cccc(C(=O)OCC(=O)NCCCc2ccccc2)c1 | inconclusive: 35.5 µM [inhibitor, single point] | – |
| O=C(Nc1ccc(F)c(Cl)c1)Nn1cnnc1 | – | inactive: -10.8% |
| N#CC1=C(SCC(=O)NC2CC2)NC(=O)C(C#N)C12CCCCC2 (configuration not stated) | – | inactive: -8.37% |
| O=C(NC(=S)NC1CCCCC1)c1ccccc1 | inconclusive: 28.2 µM [inhibitor, partial curve] | – |
| CC1(C)Cc2c(sc3c2c(=N)n(Cc2ccco2)c(=O)n3Cc2ccc(F)cc2)CO1 | inconclusive: 7.08 µM [inhibitor, full curve, poor fit] | – |
| CCC(C(=O)OCC(=O)NC(=O)NC(C)(C)C)c1ccccc1 (configuration not stated) | inconclusive: 35.5 µM [inhibitor, partial curve] | – |
| CCc1ccc(OCCNC(=O)OCc2ccccc2)cc1 | inconclusive: 28.2 µM [inhibitor, single point] | – |
| COc1ccc(C2C3=C(CC(C)(C)CC3=O)Nc3c2c(=O)n(C)c(=O)n3C)cc1OC (configuration not stated) | – | inactive: -3.66% |
| Cc1[nH]c2ccccc2c1/C=N/NC(N)=S | – | inactive: -1.7% |
| O=[N+]([O-])c1c(C(Cl)Cl)nn(-c2ccccc2)c1N1CCCC1 | inconclusive: 39.8 µM [inhibitor, partial curve] | – |
| Cc1cccc(NC(=O)CCCc2ccccc2)c1 | inconclusive: 25.1 µM [inhibitor, partial curve] | – |
| COc1ccc([C@H]2[C@H](C(=O)C(C)(C)C)N3N=Cc4ccccc4C3[C@]23N=C(c2ccccc2)OC3=O)cc1OC (some centres not stated) | inconclusive: 31.6 µM [inhibitor, partial curve] | – |
| CCCc1cc(C(=O)Nc2ccc(C(=O)c3ccccc3)cc2)n(C)n1 | inconclusive: 31.6 µM [inhibitor, partial curve] | – |
| CC(C)C(C(=O)Nc1ccc(S(=O)(=O)N2CCOCC2)cc1)N1C(=O)c2ccccc2C1=O (configuration not stated) | inconclusive: 14.1 µM [inhibitor, partial curve] | – |
| C/C(=N\NC(=O)c1cccc(O)c1)c1cccc(NC(=O)c2ccc(F)cc2)c1 | – | inactive: -15.6% |
| Cc1nnc(SCC(=O)Nc2ccc(S(=O)(=O)N3CCCCC3)cc2)s1 | inconclusive: 22.4 µM [inhibitor, partial curve] | – |
| CN(C)Cc1c(O)ccc2c1O/C(=C\C=C\c1ccccc1)C2=O | – | inactive: 202% |
| CCOC(=O)CSc1nc2cc(C(=O)N3CCCC3)ccc2c(=O)n1Cc1ccccc1 | inconclusive: 35.5 µM [inhibitor, partial curve] | – |
| CCOC(=O)C1CCCN(C(=O)Cc2ccc(Cl)cc2)C1 (configuration not stated) | inconclusive: 50.1 µM [inhibitor, single point] | – |

| Structure (SMILES) | Potency | activity change, negative = displacement |
| --- | --- | --- |
| Fc1cccc(Cl)c1CSc1ccc(-c2ccco2)nn1 | inconclusive: 31.6 µM [inhibitor, partial curve] | – |
| CNC(=O)c1sccc1SCc1ccc(Cl)cc1Cl | inconclusive: 14.1 µM [inhibitor, partial curve] | – |
| CCOc1ccccc1NC(=O)Cc1noc2ccc(C)cc12 | inconclusive: 10 µM [inhibitor, full curve] | – |
| CC(C)(C)c1ccc(Cn2c(=N)n(CC(O)c3ccco3)c3ccccc32)cc1 (configuration not stated) | inconclusive: 12.6 µM [inhibitor, partial curve] | – |
| COc1ccc(-c2nc(CCNS(=O)(=O)c3ccc4c(c3)OCCO4)cs2)cc1 | – | inactive: -11.4% |
| CCOC(=O)N1CCN(C(c2cccnc2)c2ccc3cccnc3c2O)CC1 (configuration not stated) | inconclusive: 39.8 µM [inhibitor, partial curve] | – |
| CC(C)CNS(=O)(=O)c1ccc(CCC(=O)N2CCN(Cc3ccccc3)CC2)cc1 | – | inactive: -5.18% |
| C/C(=N/NS(=O)(=O)c1ccc(Br)cc1)c1ccc(NC(=O)c2ccc(C)o2)cc1 | inconclusive: 7.08 µM [inhibitor, full curve, poor fit] | – |
| COc1ccc(N/C(C)=C/C(=S)Nc2ccccc2)cc1 | – | inactive: -11.9% |
| O=C(Nn1c(SCc2ccc(F)cc2)nc2ccsc2c1=O)c1ccccc1 | inconclusive: 10 µM [inhibitor, full curve] | – |
| O=C(N/N=C/c1cccc([N+](=O)[O-])c1)c1ccc(Br)cc1 | – | inactive: -5.49% |
| COc1ccc(NC(=O)c2cccc(N3C(=O)C4C5C=CC(C5)C4C3=O)c2)cc1 (configuration not stated) | inconclusive: 28.2 µM [inhibitor, partial curve] | – |
| Cc1ccccc1NS(=O)(=O)c1ccc(NC(=O)c2nc3ncccn3n2)cc1 | inconclusive: 56.2 µM [inhibitor, single point] | – |
| Cc1ccc(NS(=O)(=O)c2ccc3c(c2)c(=O)n(C)c(=O)n3C)cc1F | inconclusive: 31.6 µM [inhibitor, partial curve] | – |
| CCN(c1ccccc1)S(=O)(=O)c1ccc(C(=O)Oc2ccc(C(C)=O)cc2)cc1 | inconclusive: 35.5 µM [inhibitor, single point] | – |
| CCOC(=O)c1c(NC(=O)CSc2nnc(-c3ccco3)o2)sc(C(C)=O)c1C | inconclusive: 10 µM [inhibitor, full curve, poor fit] | – |
| COc1ccc(Nc2nc(N3CCN(S(C)(=O)=O)CC3)nc3ccccc23)c(OC)c1 | – | inactive: 365% |
| O=C(NCc1ccccc1)Nc1cccn(Cc2ccccc2)c1=O | inconclusive: 7.94 µM [inhibitor, partial curve] | – |
| CCCOc1ccccc1N/C(N)=N/c1nc(C)cc(C)n1 | – | inactive: -12.9% |
| O=C(NCc1nc(-c2ccc(C(F)(F)F)cc2)no1)c1cccs1 | inconclusive: 39.8 µM [inhibitor, single point] | – |
| Cc1ccc(CN2CCNC(=O)C2CC(=O)NC2CCCCCC2)o1 (configuration not stated) | inconclusive: 22.4 µM [inhibitor, partial curve] | – |
